Measured values reported in patent US20200148779A1 (Bristol-Myers Squibb, published 2020).

Assays:
hCD64-His [1] = target: T1, hCD64-His (human, UniProt P12314 16-288, limits assumed); assay: SPR, FcgR titration on protein A captured dAb-Fc
T1 construct: also called hFcgRI

human-CD40-Fc [2] = target: T2, human-CD40-Fc (human, UniProt P25942 partial chain); assay: SPR, dAb-Fc on immobilized hCD40-Fc, apparent KD (avidity)
T2 construct: generated in house; also called hCD40-Fc; not shown: Fc part of the in-house hCD40-Fc is not described

hCD64-His [3] = target: T1, hCD64-His; assay: SPR % Rmax, supernatant
human-CD40-Fc [4] = target: T2, human-CD40-Fc; assay: SPR, dAb-Fc on immobilized hCD40-Fc, apparent KD (avidity); remark: listed apart in the source
[5] = target: T3, human-CD40-monomer protein (human, UniProt P25942 partial chain, limits assumed); assay: SPR, hCD40 monomer on protein A captured dAb-Fc
T3 construct: generated in house; also called hCD40 monomer; hCD40monomer

[6] = target: human CD40 on human tonsillar B cells (human, UniProt P25942 21-277); assay: cell-based or functional assay
hCD32a-R131 = target: T4, hCD32a-R131 (human, UniProt P12318 34-217); assay: SPR, FcgR titration on protein A captured dAb-Fc
T4 construct: also called FcgRIIa-R131
T4 sequence: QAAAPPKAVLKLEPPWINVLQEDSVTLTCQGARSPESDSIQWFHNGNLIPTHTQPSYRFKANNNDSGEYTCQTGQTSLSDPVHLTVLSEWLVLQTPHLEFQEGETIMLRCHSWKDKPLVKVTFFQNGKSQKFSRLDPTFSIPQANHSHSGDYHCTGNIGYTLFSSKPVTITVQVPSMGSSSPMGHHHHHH

T2 sequence (P25942 21-193): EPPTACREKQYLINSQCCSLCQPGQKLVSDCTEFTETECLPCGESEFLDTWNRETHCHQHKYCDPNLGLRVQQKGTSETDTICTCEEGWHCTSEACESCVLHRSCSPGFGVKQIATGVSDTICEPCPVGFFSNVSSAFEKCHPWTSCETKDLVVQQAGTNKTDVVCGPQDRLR
T1 sequence (P12314 other isoform, or with tags, fused parts or gaps limits assumed): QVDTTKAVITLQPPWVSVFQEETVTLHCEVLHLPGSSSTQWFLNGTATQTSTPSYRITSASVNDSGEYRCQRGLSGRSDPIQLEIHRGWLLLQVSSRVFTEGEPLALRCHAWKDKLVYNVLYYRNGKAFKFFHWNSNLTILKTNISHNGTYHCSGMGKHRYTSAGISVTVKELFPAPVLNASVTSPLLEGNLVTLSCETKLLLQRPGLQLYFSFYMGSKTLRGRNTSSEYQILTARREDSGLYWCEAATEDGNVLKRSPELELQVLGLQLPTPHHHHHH

| Binder | Kd (hCD64-His [1]) | Kd (human-CD40-Fc [2]) | binding result (hCD64-His [3]) | Kd (human-CD40-Fc [4]) | Kd [5] | koff [5] | kon [5] | IC50 (ng/ml), human B cell proliferation stimulated with CD40L expressing CHO [6] | IC50 (ng/ml), human B cell proliferation stimulated with CD40L-IZ trimer [6] | Kd (hCD32a-R131) |
| --- | --- | --- | --- | --- | --- | --- | --- | --- | --- | --- |
| 3h56-269-IgG1-D265A (Fc fusion) EVQLLESGGGLVQPGGSLRLSCAASGFTFRDYEMWWVRQAPGKGLERVSAINPQGTRTYYADSVKGRFTISRDNSKNTLYLQMNSLRAEDTAVYYCAKLPFRFSDRGQGTLVTVSSAST[gap - human IgG1 Fc with D265A (EU numbers)] | 62 nM | < 1 nM | – | – | – | – | – | – | – | – |
| 3h56-269-IgG1a-C220S,C226A,C229A,P238K (Fc fusion) EVQLLESGGGLVQPGGSLRLSCAASGFTFRDYEMWWVRQAPGKGLERVSAINPQGTRTYYADSVKGRFTISRDNSKNTLYLQMNSLRAEDTAVYYCAKLPFRFSDRGQGTLVTVSSAST[gap - human IgG1 Fc with C220S C226A C229A P238K (EU numbers)] | – | – | binds | < 1 nM | 4.6 nM | 0.00014 s⁻¹ | 30000 M⁻¹ s⁻¹ | – | – | – |
| 3h56-269-IgG1a-C220S,C226A,C229A,P238S (Fc fusion) EVQLLESGGGLVQPGGSLRLSCAASGFTFRDYEMWWVRQAPGKGLERVSAINPQGTRTYYADSVKGRFTISRDNSKNTLYLQMNSLRAEDTAVYYCAKLPFRFSDRGQGTLVTVSSAST[gap - human IgG1 Fc with changes] | – | – | – | < 1 nM | 5.9 nM | 0.00016 s⁻¹ | 28000 M⁻¹ s⁻¹ | – | – | – |
| 3h56-269-IgG1a-C220S,C226S,C229S,P238K (Fc fusion, tested from expression supernatant) EVQLLESGGGLVQPGGSLRLSCAASGFTFRDYEMWWVRQAPGKGLERVSAINPQGTRTYYADSVKGRFTISRDNSKNTLYLQMNSLRAEDTAVYYCAKLPFRFSDRGQGTLVTVSSAST[gap - human IgG1 Fc with C220S C226S C229S P238K (EU numbers)] | – | – | binds | – | – | – | – | – | – | – |
| 3h56-269-IgG1a-C220S,P238K (Fc fusion) EVQLLESGGGLVQPGGSLRLSCAASGFTFRDYEMWWVRQAPGKGLERVSAINPQGTRTYYADSVKGRFTISRDNSKNTLYLQMNSLRAEDTAVYYCAKLPFRFSDRGQGTLVTVSSAST[gap - human IgG1 Fc with C220S P238K (EU numbers)] | – | – | binds | < 1 nM | 4.9 nM | 0.00013 s⁻¹ | 25000 M⁻¹ s⁻¹ | 34.6 ng/mL | 2.3 ng/mL | – |

The remaining lines, values ahead:

| Kd (hCD64-His [1]) | Kd (human-CD40-Fc [2]) | binding result (hCD64-His [3]) | Kd (human-CD40-Fc [4]) | Kd [5] | koff [5] | kon [5] | IC50 (ng/ml), human B cell proliferation stimulated with CD40L expressing CHO [6] | IC50 (ng/ml), human B cell proliferation stimulated with CD40L-IZ trimer [6] | Kd (hCD32a-R131) | Binder |
| --- | --- | --- | --- | --- | --- | --- | --- | --- | --- | --- |
| – | – | – | < 1 nM | 5 nM | 0.00014 s⁻¹ | 27000 M⁻¹ s⁻¹ | 39.9 ng/mL | 2.8 ng/mL | – | 3h56-269-IgG1f-C220S,N297A (Fc fusion) EVQLLESGGGLVQPGGSLRLSCAASGFTFRDYEMWWVRQAPGKGLERVSAINPQGTRTYYADSVKGRFTISRDNSKNTLYLQMNSLRAEDTAVYYCAKLPFRFSDRGQGTLVTVSSAST[gap - human IgG1 Fc with changes] |
| 2.8 nM | < 1 nM | – | – | – | – | – | – | – | 2200 nM | 3h56-269-IgG4.1 (Fc fusion, also called BMS-986090) EVQLLESGGGLVQPGGSLRLSCAASGFTFRDYEMWWVRQAPGKGLERVSAINPQGTRTYYADSVKGRFTISRDNSKNTLYLQMNSLRAEDTAVYYCAKLPFRFSDRGQGTLVTVSSAST[gap - human IgG4 Fc with S228P (EU numbers)] |

Where two headings read alike, the source gives them in different places.
